# Measurements taken from the supplement of paper PMC8728848.
# The list shows a part of the results.
# What was measured:
# Assay in all cases: glycan array binding signal (z-score within array); higher = stronger binding
# Conditions in all cases: glycan notation: IUPAC condensed, linker removed
# [1] = biological target: GlcNAc(b1-4)GlcNAc(b1-4)GlcNAc(b1-4)GlcNAc(b1-4)GlcNAc(b1-4)GlcNAc
# Outline: (§1)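 The binding signal is a Z-score computed within each array. Data were drawn from 3228 arrays in the Consortium for Functional Glycomics database, restricted to those with a known protein sequence. Scores were averaged over arrays of the same protein sequence at different concentrations or buffers, and over linkers, and negative values can be taken as non-binding.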
# [2] = biological target: GlcNAc(b1-4)[GlcNAc(b1-6)]GalNAc
# Outline: as §1
# [3] = biological target: GlcNAc(b1-6)Gal(b1-4)GlcNAc
# Outline: as §1
# GlcNAc(b1-6)GalNAc = biological target: GlcNAc(b1-6)GalNAc
# Outline: as §1
# [4] = biological target: GlcNAc6S(b1-3)Gal(b1-4)GlcNAc
# Outline: as §1
# Kdn(a2-3)Gal(b1-3)GalNAc = biological target: Kdn(a2-3)Gal(b1-3)GalNAc
# Outline: as §1
# Kdn(a2-3)Gal(b1-3)GlcNAc = biological target: Kdn(a2-3)Gal(b1-3)GlcNAc
# Outline: as §1
# Kdn(a2-3)Gal(b1-4)Glc = biological target: Kdn(a2-3)Gal(b1-4)Glc
# Outline: as §1
# Kdn(a2-3)Gal(b1-4)GlcNAc = biological target: Kdn(a2-3)Gal(b1-4)GlcNAc
# Outline: as §1
# [5] = biological target: Kdn(a2-3)Gal(b1-4)[Fuc(a1-3)]GlcNAc
# Outline: as §1
# Kdn(a2-6)Gal(b1-4)GlcNAc = biological target: Kdn(a2-6)Gal(b1-4)GlcNAc
# Outline: as §1
# [6] = biological target: Man(a1-2)Man(a1-2)Man(a1-3)Man
# Outline: as §1
# [7] = biological target: Man(a1-2)Man(a1-2)Man(a1-6)[Man(a1-3)]Man
# Outline: as §1
# Man(a1-2)Man(a1-3)Man = biological target: Man(a1-2)Man(a1-3)Man
# Outline: as §1
# [8] = biological target: Man(a1-2)Man(a1-3)[Man(a1-2)Man(a1-6)]Man
# Outline: as §1
# [9] = biological target: Man(a1-2)Man(a1-3)[Man(a1-2)Man(a1-6)]Man(a1-6)[Man(a1-2)Man(a1-2)Man(a1-3)]Man
# Outline: as §1
# [10] = biological target: Man(a1-2)Man(a1-3)[Man(a1-2)Man(a1-6)]Man(a1-6)[Man(a1-2)Man(a1-2)Man(a1-3)]Man(b1-4)GlcNAc(b1-4)GlcNAc
# Outline: as §1
# [11] = biological target: Man(a1-2)Man(a1-3)[Man(a1-6)]Man(a1-6)[Man(a1-2)Man(a1-3)]Man(b1-4)GlcNAc(b1-4)GlcNAc
# Outline: as §1
# [12] = biological target: Man(a1-2)Man(a1-6)[Man(a1-3)]Man(a1-6)[Man(a1-2)Man(a1-2)Man(a1-3)]Man
# Outline: as §1
# [13] = biological target: Man(a1-2)Man(a1-6)[Man(a1-3)]Man(a1-6)[Man(a1-2)Man(a1-2)Man(a1-3)]Man(b1-4)GlcNAc(b1-4)GlcNAc
# Outline: as §1
# Man(a1-3)[Man(a1-6)]Man = biological target: Man(a1-3)[Man(a1-6)]Man
# Outline: as §1
# [14] = biological target: Man(a1-3)[Man(a1-6)]Man(a1-6)[Man(a1-2)Man(a1-3)]Man(b1-4)GlcNAc(b1-4)GlcNAc
# Outline: as §1
# [15] = biological target: Man(a1-3)[Man(a1-6)]Man(a1-6)[Man(a1-3)]Man
# Outline: as §1
# [16] = biological target: Man(a1-3)[Man(a1-6)]Man(a1-6)[Man(a1-3)]Man(b1-4)GlcNAc(b1-4)GlcNAc
# Outline: as §1
# [17] = biological target: Man(a1-3)[Man(a1-6)]Man(b1-4)GlcNAc(b1-4)GlcNAc
# Outline: as §1
# [18] = biological target: Man(a1-3)[Man(a1-6)]Man(b1-4)GlcNAc(b1-4)[Fuc(a1-6)]GlcNAc
# Outline: as §1
# Man(a1-6)Man = biological target: Man(a1-6)Man
# Outline: as §1
# Man(b1-4)GlcNAc = biological target: Man(b1-4)GlcNAc
# Outline: as §1
# MurNAc(b1-4)GlcNAc = biological target: MurNAc(b1-4)GlcNAc
# Outline: as §1
# Neu5Ac(a2-3)Gal = biological target: Neu5Ac(a2-3)Gal
# Outline: as §1
# [19] = biological target: Neu5Ac(a2-3)Gal(b1-3)GalNAc
# Outline: as §1
# [20] = biological target: Neu5Ac(a2-3)Gal(b1-3)GalNAc(b1-3)Gal(a1-4)Gal(b1-4)Glc
# Outline: as §1
# [21] = biological target: Neu5Ac(a2-3)Gal(b1-3)GalNAc(b1-4)[Neu5Ac(a2-3)]Gal(b1-4)Glc
# Outline: as §1
# [22] = biological target: Neu5Ac(a2-3)Gal(b1-3)GalNAc(b1-4)[Neu5Ac(a2-8)Neu5Ac(a2-3)]Gal(b1-4)Glc
# Outline: as §1
# [23] = biological target: Neu5Ac(a2-3)Gal(b1-3)GalNAc6S
# Outline: as §1
# [24] = biological target: Neu5Ac(a2-3)Gal(b1-3)GlcNAc
# Outline: as §1
# [25] = biological target: Neu5Ac(a2-3)Gal(b1-3)GlcNAc(b1-2)Man
# Outline: as §1
# [26] = biological target: Neu5Ac(a2-3)Gal(b1-3)GlcNAc(b1-2)Man(a1-3)[GlcNAc(b1-4)][Neu5Ac(a2-3)Gal(b1-3)GlcNAc(b1-2)Man(a1-6)]Man(b1-4)GlcNAc(b1-4)GlcNAc
# Outline: as §1
# [27] = biological target: Neu5Ac(a2-3)Gal(b1-3)GlcNAc(b1-2)Man(a1-3)[Neu5Ac(a2-3)Gal(b1-3)GlcNAc(b1-2)Man(a1-6)]Man(b1-4)GlcNAc(b1-4)GlcNAc
# Outline: as §1
# [28] = biological target: Neu5Ac(a2-3)Gal(b1-3)GlcNAc(b1-3)Gal(b1-3)GlcNAc
# Outline: as §1
# [29] = biological target: Neu5Ac(a2-3)Gal(b1-3)GlcNAc(b1-3)Gal(b1-4)GlcNAc
# Outline: as §1
# [30] = biological target: Neu5Ac(a2-3)Gal(b1-3)GlcNAc(b1-3)GalNAc
# Outline: as §1
# [31] = biological target: Neu5Ac(a2-3)Gal(b1-3)GlcNAc(b1-4)Gal(b1-4)Glc
# Outline: as §1
# [32] = biological target: Neu5Ac(a2-3)Gal(b1-3)GlcNAc(b1-6)GalNAc
# Outline: as §1
# [33] = biological target: Neu5Ac(a2-3)Gal(b1-3)GlcNAc6S
# Outline: as §1
binder,measurement,setting,value
"MPA (Maclura pomifera), P18674 (protein) GVTFDDGAYTGIREINFEYNSETAIGGLRVTYDLNGMPFVAEDHKSFITGFKPVKISLEFPSEYIVEVSGYVGKVEGYTVIRSLTFKTNKQTYGPYGVTNGTPFSLPIENGLIVGFKGSIGYWLDYFSIYLSL",glycan array binding signal (z-score),[1],-0.082
same,glycan array binding signal (z-score),[2],-0.208
same,glycan array binding signal (z-score),[3],-0.1
same,glycan array binding signal (z-score),GlcNAc(b1-6)GalNAc,-0.107
same,glycan array binding signal (z-score),[4],-0.128
same,glycan array binding signal (z-score),Kdn(a2-3)Gal(b1-3)GalNAc,-0.095
same,glycan array binding signal (z-score),Kdn(a2-3)Gal(b1-3)GlcNAc,-0.278
same,glycan array binding signal (z-score),Kdn(a2-3)Gal(b1-4)Glc,-0.128
same,glycan array binding signal (z-score),Kdn(a2-3)Gal(b1-4)GlcNAc,-0.14
same,glycan array binding signal (z-score),[5],-0.14
same,glycan array binding signal (z-score),Kdn(a2-6)Gal(b1-4)GlcNAc,-0.069
same,glycan array binding signal (z-score),[6],-0.231
same,glycan array binding signal (z-score),[7],-0.161
same,glycan array binding signal (z-score),Man(a1-2)Man(a1-3)Man,-0.247
same,glycan array binding signal (z-score),[8],-0.239
same,glycan array binding signal (z-score),[9],-0.215
same,glycan array binding signal (z-score),[10],-0.039
same,glycan array binding signal (z-score),[11],-0.168
same,glycan array binding signal (z-score),[12],-0.221
same,glycan array binding signal (z-score),[13],-0.253
same,glycan array binding signal (z-score),Man(a1-3)[Man(a1-6)]Man,-0.198
same,glycan array binding signal (z-score),[14],0.811
same,glycan array binding signal (z-score),[15],-0.079
same,glycan array binding signal (z-score),[16],-0.159
same,glycan array binding signal (z-score),[17],-0.177
same,glycan array binding signal (z-score),[18],-0.407
same,glycan array binding signal (z-score),Man(a1-6)Man,-0.169
same,glycan array binding signal (z-score),Man(b1-4)GlcNAc,-0.175
same,glycan array binding signal (z-score),MurNAc(b1-4)GlcNAc,-0.191
same,glycan array binding signal (z-score),Neu5Ac(a2-3)Gal,-0.241
same,glycan array binding signal (z-score),[19],-0.313
same,glycan array binding signal (z-score),[20],-0.249
same,glycan array binding signal (z-score),[21],-0.301
same,glycan array binding signal (z-score),[22],-0.179
same,glycan array binding signal (z-score),[23],-0.265
same,glycan array binding signal (z-score),[24],-0.242
same,glycan array binding signal (z-score),[25],1.21
same,glycan array binding signal (z-score),[26],-0.221
same,glycan array binding signal (z-score),[27],0.387
same,glycan array binding signal (z-score),[28],-0.121
same,glycan array binding signal (z-score),[29],-0.339
same,glycan array binding signal (z-score),[30],-0.213
same,glycan array binding signal (z-score),[31],-0.183
same,glycan array binding signal (z-score),[32],-0.227
same,glycan array binding signal (z-score),[33],-0.098
